Data as given in patent US9023812B2, “Neuroprotective ganglioside compositions for use in treating huntington's disease” (The Governors of the University of Alberta, priority 2009, dated 2015).

How the values were obtained:
[1] = test system: Htt phosphorylated at S13 and S16; assay: Htt phosphorylation at Ser13 and Ser16 by N17pS13pS16 immunostaining, YAC128 (HD) cortical neurons; type: cell-based, mouse; details: primary HD neurons (YAC128 cortical), GM1 50 μM, 2 hours
Protocol: Cultures of primary cortical neurons were prepared from newborn mice (P0). Briefly, the brain was dissected and selected regions were minced and digested with 1 mg/ml papain for 10 minutes at 37° C. DNAse was added to the digestion mix in the last 5 minutes of incubation. Cells were centrifuged at 200×g for 1 minute, resuspended in Neurobasal-A medium (Invitrogen) supplemented with 1% B27 (Invitrogen) and gently dissociated by pipetting up and down. Neurons were plated onto poly-D-lysine-coated wells at a density of 0.1×10^6 cells/cm^2 and used for experiments at 10-12 days in vitro.

STHdh^111Q/111Q cells = assay: Induction and measurement of apoptosis (annexin V binding / active caspase-3, FACS) in HD knock-in striatal cells
[2] = test system: Htt phosphorylated at S13 and S16; assay: Htt phosphorylation at Ser13 and Ser16 by N17pS13pS16 immunostaining, fibroblasts from HD patients; details: human fibroblasts derived from HD patients, GM1 50 μM, 2 hours
Protocol: Cells were seeded onto glass coverslips coated with 50 μg/ml poly-L-lysine. The day after, cells were treated with 50 μM GM1 for 5 hours, washed and fixed in 4% paraformaldehyde at room temperature (r.t.) for 10 minutes. After cell permeabilization with 0.1% Triton X-100 for 5 minutes, incubation with anti-phosphoSer13, phosphoser16 antibody (N17pS13pS16, kindly donated by Dr. Truant, McMaster University, Canada) was performed at 1:1000 dilution in PBS+4% donkey serum for 1 hour at r.t. Secondary antibody used were anti-rabbit Alexa-A488 (for knock-in cells and neurons) and anti-rabbit Alexa-A555 (for human fibroblasts), used at 1:500 dilution in PBS+4% donkey serum for 1 hour at r.t. After 3 washes, nuclei were counterstained with DAPI and the slides were mounted with ProLong Gold antifading reagent (Invitrogen). Analysis was performed with a Zeiss Axiovert 100 epifluorescent microscope or with a LSM510 laser scanning confocal microscope mounted on a Zeiss Axiovert 100M microscope (for fibroblasts). Images of wild-type and HD cells were acquired using the same confocal settings or same exposure time.
In FIG. 16, Panel A, immortalized striatal cells (111/1111) were incubated for 2 hours with or without GM1. Cells were fixed and immunostained with N17pS13pS16 antibody, which recognizes Htt phosphorylated at S13 and S16. […]

ganglioside GM1
phosphorylation of Htt on Ser13 and Ser16 [1]: increases phosphorylation of Htt on Ser13 and Ser16
most effective (neuroprotective) GM1 concentration in the in cell studies (STHdh^111Q/111Q cells): 50 µM
phosphorylation of Htt on Ser13 and Ser16 [2]: increases phosphorylation of Htt on Ser13 and Ser16
